Assay results taken from PubChem BioAssay AID1460 (National Center for Advancing Translational Sciences (NCATS), 2008).
In all, about 270,000 compounds went through this assay and about 5,800 (2.1%) were called active. The shares of active, inactive and inconclusive entries below differ from those in the screen. Calls follow the shape of the dose curve; as a rule, active = well fitted inhibition curve with a large enough effect; inconclusive = small, poorly fitted or top-dose-only effect; inactive = flat fitted curve, though single readings scatter. Potencies of inconclusive entries are doubtful fits and often do not repeat.

target: Microtubule-associated protein tau (Homo sapiens) (UniProt P10636); assay: qHTS for Inhibitors of Tau Fibril Formation, Thioflavin T Binding; conditions: recombinant tau K18 P301L (four-repeat tau fragment), heparin-induced fibrillization, ThT fluorescence; series mostly up to 57.4 µM; activity, negative = inhibition: at the top concentration; also: nearly all actives have a fitted effect of over 55% in size
Text: NIH Molecular Libraries Probe Production Network [MLPCN]
NIH Chemical Genomics Center [NCGC]
Assay Provider: Carlo Ballatore, University of Pennsylvania
The microtubule-associated protein tau is an abundant protein in the axons of neurons that stabilizes microtubules. With its ability to modulate microtubule dynamics, tau contributes directly or indirectly, to key structural and regulatory cellular functions. Particularly important is the influence tau exerts on axonal transport, which allows signaling molecules, trophic factors and other essential cellular constituents to travel along the axons. Under pathological conditions, tau becomes sequestered into insoluble aggregates called neurofibrillary tangles. This phenomenon is believed to have pathological consequences by promoting axonal transport deficits that ultimately lead to synaptic dysfunction and neuronal loss. To identify inhibitors of tau aggregation, a heparin-induced tau fibril formation assay was used that employed a recombinantly expressed fragment of tau, K18 (Q242-E372), bearing a P301L mutation (Gustke et al. 1994; Hong et al. 1998). This assay monitors tau fibrillization by Thioflavin T (ThT) fluorescence.
Gustke, N., B. Trinczek, et al. (1994). "Domains of tau protein and interactions with microtubules." Biochemistry 33(32): 9511-22.
Hong, M., V. Zhukareva, et al. (1998).
Li, W. and V. M. Lee (2006).
von Bergen, M., S. Barghorn, et al. (2001). "Mutations of tau protein in frontotemporal dementia promote aggregation of paired helical filaments by enhancing local beta-structure." J Biol Chem 276(51): 48165-74.
NCGC Assay Protocol Summary:
For screening, 2 uL/well human K18 P301L (15 uM unlabeled and 0.24 uM Alexa 594-labeled tau, final concentrations) in reagent buffer (100 mM sodium acetate pH 7) was dispensed into black solid 1536-well plates (Grenier) using a solenoid-based dispenser. Following transfer of 23 nL compound or DMSO vehicle by a pin tool, 2 uL/well heparin (20 uM final concentration) in reagent buffer was added and the plate centrifuged 15 s at 1000 RPM. Plates were incubated 6 hr at 37 C and then 1 uL/well ThT (30 uM final concentration) was added. After a 1 hr ambient incubation, the plates were read by an Envision (Perkin Elmer) to monitor ThT fluorescence (450/8 nm excitation and 510/23 nm emission).
Keywords: NIH Roadmap, MLPCN, MLI, MLSMR, NCGC, qHTS, tau, tauopathies, Alzheimer's disease, fibril, neurodegeneration, aggregation
% is scaled to controls: 0 for no effect and ±100 for the full control effect; potency is read from the fitted curve at half-maximal effect; tags tell the direction and shape of the fitted curve.

UniProt P10636, sequence (P10636 whole entry, looked up, the tested form may be a part): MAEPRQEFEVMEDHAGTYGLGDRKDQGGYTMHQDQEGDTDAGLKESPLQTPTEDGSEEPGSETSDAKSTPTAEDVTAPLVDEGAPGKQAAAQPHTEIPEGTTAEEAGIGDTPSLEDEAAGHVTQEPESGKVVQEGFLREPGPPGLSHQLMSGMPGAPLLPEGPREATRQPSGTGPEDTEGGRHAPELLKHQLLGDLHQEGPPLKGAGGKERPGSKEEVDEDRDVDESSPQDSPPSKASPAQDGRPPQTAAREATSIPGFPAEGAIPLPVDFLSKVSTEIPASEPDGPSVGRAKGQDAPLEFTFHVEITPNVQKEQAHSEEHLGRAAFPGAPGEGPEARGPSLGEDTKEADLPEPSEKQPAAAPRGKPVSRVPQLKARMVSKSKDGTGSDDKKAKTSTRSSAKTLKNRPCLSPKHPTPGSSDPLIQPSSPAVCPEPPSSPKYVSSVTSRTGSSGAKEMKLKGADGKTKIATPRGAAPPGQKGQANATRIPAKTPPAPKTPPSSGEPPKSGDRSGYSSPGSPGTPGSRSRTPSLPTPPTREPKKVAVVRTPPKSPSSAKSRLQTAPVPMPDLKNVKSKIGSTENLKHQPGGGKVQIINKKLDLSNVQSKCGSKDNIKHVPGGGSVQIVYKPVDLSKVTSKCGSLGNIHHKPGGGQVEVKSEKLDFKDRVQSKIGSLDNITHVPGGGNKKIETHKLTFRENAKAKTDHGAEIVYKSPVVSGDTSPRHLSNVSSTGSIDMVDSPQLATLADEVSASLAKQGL

SMILES	Potency	activity, negative = inhibition
Cc1ccc(NC(=O)Nc2ccc3c(c2)OCO3)nc1	inconclusive: 3.55 µM [inhibitor, full curve]	–
NC(=O)c1cccnc1Nc1cccc([N+](=O)[O-])c1	inconclusive: 14.1 µM [inhibitor, partial curve]	–
Cc1ccc(NC(=O)CSc2ncc3c(n2)-c2ccccc2N(Cc2cccc(F)c2)S3(=O)=O)cc1F	–	inactive: -0.637%
[O-]/C(=C(\C(=S)NCc1ccc2c(c1)OCO2)[n+]1ccccc1)c1ccc(Cl)s1	inconclusive: 8.91 µM [inhibitor, partial curve, poor fit]	–
COc1cccc(-c2cncnc2NCc2ccccc2)c1	inconclusive: 8.91 µM [inhibitor, single point]	–
Cc1ccccc1Cn1c(C(=O)O)c(CNCc2cccc(F)c2)c2ccccc21	–	inactive: 8%
COC(=O)c1scc(-c2ccccc2)c1S(=O)(=O)Nc1ccccc1	–	inactive: -4.33%
CCCn1c(N)c(C(=S)NC(=O)C2CC2)c(=O)n(C)c1=O	–	inactive: -10.5%
Cc1ccc(OCCOc2ccc(Cl)cc2Cl)c([N+](=O)[O-])n1	inconclusive: 14.1 µM [inhibitor, partial curve]	–
O=C(NCc1ccc(F)cc1)c1ccc(CSCc2cccc(Cl)c2)o1	–	inactive: -15.5%
COc1ccccc1/C=C/c1nc(C#N)c(N2CCCCC2)o1	inconclusive: 11.2 µM [inhibitor, partial curve]	–
Oc1ccc(COCc2ccccc2)c2cccnc12	inconclusive: 12.6 µM [inhibitor, partial curve]	–
Cc1ccc(N=C2NC(=O)/C(=C/c3cn(C)c4ccccc34)S2)cc1C	active: 3.98 µM	–
COc1ccc(-n2c(SCC(N)=O)nc3nc4c(cc3c2=O)COC(C)(C)C4)cc1	–	inactive: -14.3%
CCn1c2ccc(C)cc2c2nnc(NN)nc21	inconclusive: 12.6 µM [inhibitor, partial curve]	–
COc1ccc(-c2nc3ccccc3c(=O)n2NC(=S)N(C)C)cc1	inconclusive: 31.6 µM [inhibitor, single point]	–
Clc1cccc(N2CCN(c3nc4ccccc4n4cnnc34)CC2)c1	inconclusive: 2 µM [inhibitor, partial curve, poor fit]	–
COc1ccc(NC(=O)/C=C/c2cccc(F)c2)cn1	–	inactive: -5.94%
COc1ccc(-n2nc3ccc(NC(=O)c4ccc(-c5cc(Cl)ccc5Cl)o4)cc3n2)cc1	inconclusive: 0.447 µM [inhibitor, full curve]	–
Cc1ccc(/C=C/c2ccc(=O)n(Cc3ccccc3Cl)n2)cc1	inconclusive: 31.6 µM [inhibitor, single point]	–
